Test results published in PubChem BioAssay AID1347165 (National Center for Advancing Translational Sciences (NCATS), 2019).
Out of some 220,000 compounds screened, about 5,700 (2.6%) were called active. The shares of active, inactive and inconclusive entries below differ from those in the screen. The call rests on the fitted dose curve; in most records, active means well fitted inhibition curve with a large enough effect; inconclusive means small, poorly fitted or top-dose-only effect; inactive means no such curve, though single readings can be large or run the other way. Potencies beside an inconclusive call are fits to weak or partial responses and may not hold up.
Further: nearly all actives have a fitted effect of over 70% in size.
Potency means the concentration at half of the fitted maximal effect; tags describe the fitted curve by direction and shape.
Wherever activity change, negative = inhibition is given: 0% is about no effect.

The compounds below were run against Lysine-specific demethylase 5B (Homo sapiens) (UniProt Q9UGL1) (assay: Primary screen for KDM5B Histone Demethylases FDH-coupled qHTS). Conditions: FDH-coupled NADH fluorescence (FDH is formaldehyde dehydrogenase); activity change, negative = inhibition: at 57.7 µM (top of the series) unless noted.
UniProt Q9UGL1, sequence (Q9UGL1 whole entry, looked up): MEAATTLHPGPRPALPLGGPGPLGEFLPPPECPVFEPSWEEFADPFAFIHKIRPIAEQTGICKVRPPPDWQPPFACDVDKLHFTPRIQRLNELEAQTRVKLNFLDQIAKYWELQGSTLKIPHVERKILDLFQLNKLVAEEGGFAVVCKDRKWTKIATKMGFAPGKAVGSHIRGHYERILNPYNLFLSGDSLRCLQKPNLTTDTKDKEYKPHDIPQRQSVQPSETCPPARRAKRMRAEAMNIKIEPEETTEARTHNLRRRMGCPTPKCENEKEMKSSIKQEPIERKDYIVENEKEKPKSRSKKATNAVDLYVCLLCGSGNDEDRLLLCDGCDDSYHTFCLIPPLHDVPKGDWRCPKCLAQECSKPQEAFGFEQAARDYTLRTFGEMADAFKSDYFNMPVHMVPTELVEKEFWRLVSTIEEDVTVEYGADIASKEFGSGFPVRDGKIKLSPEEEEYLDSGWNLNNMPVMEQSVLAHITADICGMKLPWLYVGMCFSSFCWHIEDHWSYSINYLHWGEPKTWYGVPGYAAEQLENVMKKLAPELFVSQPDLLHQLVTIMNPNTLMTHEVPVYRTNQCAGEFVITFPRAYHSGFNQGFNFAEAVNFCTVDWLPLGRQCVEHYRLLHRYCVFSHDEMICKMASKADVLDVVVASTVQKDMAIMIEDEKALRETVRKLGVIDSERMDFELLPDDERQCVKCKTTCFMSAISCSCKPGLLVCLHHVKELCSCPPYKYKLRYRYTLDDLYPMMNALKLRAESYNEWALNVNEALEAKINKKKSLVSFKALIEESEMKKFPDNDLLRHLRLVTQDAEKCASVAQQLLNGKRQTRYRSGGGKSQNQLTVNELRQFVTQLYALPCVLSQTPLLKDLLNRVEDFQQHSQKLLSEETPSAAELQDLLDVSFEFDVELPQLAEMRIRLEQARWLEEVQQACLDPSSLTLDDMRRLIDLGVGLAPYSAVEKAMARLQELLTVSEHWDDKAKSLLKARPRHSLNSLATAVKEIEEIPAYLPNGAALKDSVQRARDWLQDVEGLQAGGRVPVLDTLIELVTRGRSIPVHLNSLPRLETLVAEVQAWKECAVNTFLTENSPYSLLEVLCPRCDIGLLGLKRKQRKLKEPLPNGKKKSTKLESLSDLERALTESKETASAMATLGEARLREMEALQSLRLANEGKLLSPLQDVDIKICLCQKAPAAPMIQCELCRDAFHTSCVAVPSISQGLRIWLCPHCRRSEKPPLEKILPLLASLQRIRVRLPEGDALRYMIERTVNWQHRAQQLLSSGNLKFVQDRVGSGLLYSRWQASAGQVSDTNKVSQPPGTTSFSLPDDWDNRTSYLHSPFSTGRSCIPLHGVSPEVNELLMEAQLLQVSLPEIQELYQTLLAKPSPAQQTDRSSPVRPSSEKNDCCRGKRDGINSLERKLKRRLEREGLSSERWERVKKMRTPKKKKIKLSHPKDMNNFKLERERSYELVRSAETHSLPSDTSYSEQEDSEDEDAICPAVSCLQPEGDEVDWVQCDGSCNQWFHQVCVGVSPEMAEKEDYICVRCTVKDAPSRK
Procedure, shortened: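 Measured: NADH fluorescence change, 30 min, RT. System: KDM5BΔAP 200 nM final, H3K4me3 peptide, α-KG, Fe(II), ascorbate, NAD⁺ plus FDH, pH 7.5 HEPES. Compounds: titrated, 10 min pre-incubation with enzyme.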
In the case of `CCCNC(=S)Nc1ccc(Cl)c(Cl)c1`, the “activity change, negative = inhibition” value was inactive: -0.363%. With `CO[C@H]1C(=O)N(C(C)C)[C@H]1C1CCN(Cc2ccc3cc[nH]c3c2)CC1` the Potency was inconclusive: 17.8 µM [inhibitor, single point]. With `Cc1ccc(NC(=O)Cn2c(N3CCOCC3)nc(C)cc2=O)c(Cl)c1` the Potency was inconclusive: 15.8 µM [inhibitor, partial curve, poor fit]. For `COc1cccc(OC)c1C(=O)Oc1cc(C)c2c(c1)O/C(=C\c1ccncc1)C2=O`, the “activity change, negative = inhibition” value was inactive: 13%. In the case of `NCC(=O)N1CCc2nc(-c3ccco3)nc(N3CC=CCC3)c2CC1`, the Potency was inconclusive: 20 µM [inhibitor, single point]. With `COc1cccc(S(=O)(=O)N2CC(N(C3CCOCC3)S(C)(=O)=O)C2)c1` the “activity change, negative = inhibition” value was inactive: 21.6%. With `Cc1nn(-c2ccc(C(C)C)cc2)c(C)c1[C@@H]1C=C[C@@H](NC(=S)NCC(C)C)C1` the Potency was inconclusive: 25.1 µM [inhibitor, single point]. In the case of `CCCC(=O)N1CCN(c2nc(-c3ccco3)c3c(c2C#N)CCCC3)CC1`, the Potency was inconclusive: 7.94 µM [inhibitor, full curve, poor fit]. In the case of `Cc1ccc(NC(=O)Cn2c(N3CCN(c4ccccc4)CC3)nc(C)cc2=O)c(C)c1`, the Potency was inconclusive: 17.8 µM [inhibitor, single point]. In the case of `CC(=O)c1ccc(NC(=O)Cn2ncc3c4ccccc4n(Cc4ccccc4)c3c2=O)cc1`, the Potency was inconclusive: 44.7 µM [inhibitor, single point]. For `CC1CCC(C(C)C)C(OC(=O)COC(=O)CCC(=O)c2cccs2)C1` (stereo unspecified), the “activity change, negative = inhibition” value was inactive: -11.8%. With `Cc1cc(OCC(=O)NCCCN(C)C)c2c(C)c(C)c(=O)oc2c1` the Potency was inconclusive: 20 µM [inhibitor, partial curve, poor fit]. With `Oc1ccc(-c2nc3ccc(Cl)cn3c2Nc2ccc3c(c2)OCO3)cc1` the Potency was inconclusive: 1.78 µM [inhibitor, partial curve, poor fit]. With `COC(=O)C1=C(C)N=C2SC=C(CC(=O)NCC3CCCO3)N2C1c1ccccc1OC` (stereo unspecified) the Potency was inconclusive: 22.4 µM [inhibitor, partial curve, poor fit]. `CSc1cccc(NC(=O)C2CC3C=CC2C3)c1` (stereo unspecified) was tested, and the “activity change, negative = inhibition” value was inactive: -2.64%. For `Cc1nc2n(c1C(=O)Nc1cc(-c3ccc(F)cc3)[nH]n1)CCC(Nc1ccc(F)cc1)C2` (stereo unspecified), the Potency was inconclusive: 39.8 µM [inhibitor, single point]. `CCOc1ccc(C(=O)NC2CCN(c3cc(-c4ccc(F)cc4)[nH]n3)CC2)cc1` was tested, and the “activity change, negative = inhibition” value was inactive: -17%. `CC(C)CC(=O)Nc1nonc1-c1ccc(Br)cc1` was tested, and the “activity change, negative = inhibition” value was inactive: 5.94%. In the case of `Cc1cnn(CCC(=O)N2CCC3(CC2)CN(Cc2ccccc2)CC3CO)c1` (stereo unspecified), the Potency was inconclusive: 31.6 µM [inhibitor, single point]. For `O=C(OCc1ccc(F)cc1Br)c1ccc(CN2CCCC2=O)cc1`, the “activity change, negative = inhibition” value was inactive: -11.5%. `COC(=O)CSc1nnc(COc2cccc3ccc(C)nc23)n1C` was tested, and the Potency was inconclusive: 39.8 µM [inhibitor, single point]. In the case of `Cc1c(Cl)cccc1Nc1nn2c(=O)c3ccc(C(=O)NCCC4=CCCCC4)cc3nc2s1`, the Potency was inconclusive: 14.1 µM [inhibitor, partial curve, poor fit]. In the case of `COc1ccc(S(=O)(=O)N(CC(=O)NC(C(C)C)C(C)C)c2ccc(F)cc2)cc1OC`, the “activity change, negative = inhibition” value was inactive: -0.88%. With `Cc1ccc2cc(CCC(=O)NCCCN(C)C)c(=O)[nH]c2c1` the Potency was inconclusive: 15.8 µM [inhibitor, partial curve]. For `COc1ccc2c(c1)CCN=C2C[C@H]1CN(C(=O)N2CCOCC2)CC[C@H]1CC(=O)O`, the Potency was inconclusive: 28.2 µM [inhibitor, single point]. With `Cn1cnc2cc(-c3ccc(F)cc3)cc(C(=O)NCCc3cnc[nH]3)c21` the Potency was inconclusive: 39.8 µM [inhibitor, partial curve, poor fit]. In the case of `Cn1cnc2cc(-c3cccc(N4CCOCC4)c3)cc(C(=O)NCc3cccnc3)c21`, the Potency was inconclusive: 28.2 µM [inhibitor, partial curve, poor fit]. For `COc1ccc(OC)c(S(=O)(=O)N2CCC(Oc3ccccc3-c3nc(C)no3)C2)c1` (stereo unspecified), the Potency was inconclusive: 28.2 µM [inhibitor, single point]. With `CCCNC(=O)C12CC3CCC(CC(C3)C1)C2` the “activity change, negative = inhibition” value was inactive: -17.3%. With `CCOCCn1c(N2CCN(Cc3cccc(C)c3)CC2)nc2c1c(=O)[nH]c(=O)n2C` the “activity change, negative = inhibition” value was inactive: 18.4%. `CCN(CC)c1ccc(-n2nc3cc(C)c(NC(=O)c4ccccc4C)cc3n2)c(C)c1` was tested, and the Potency was inconclusive: 25.1 µM [inhibitor, partial curve, poor fit]. In the case of `CC(C)n1c(SCc2ccccc2Cl)nc2c1c(=O)[nH]c(=O)n2C`, the “activity change, negative = inhibition” value was inactive: 0.97%. In the case of `COC1CN(c2ccc(C)cc2)C12CCN(C(=O)Cc1ccccc1)CC2` (stereo unspecified), the Potency was inconclusive: 22.4 µM [inhibitor, partial curve, poor fit]. In the case of `Cc1cc(=O)n(CC(=O)Nc2ccccc2)c(-c2ccccc2)n1`, the “activity change, negative = inhibition” value was inactive: 24%. For `Cc1oc2ccn(Cc3cccc(F)c3)c(=O)c2c1C(=O)NCc1cccnc1`, the “activity change, negative = inhibition” value was inactive: 1.67%. With `CC1=C(C(=O)Nc2ccc(C)cc2C)C(c2ccc(Br)cc2)n2ncc(C(=O)Nc3cccc(C)c3)c2N1` (stereo unspecified) the Potency was inconclusive: 39.8 µM [inhibitor, partial curve, poor fit]. `COc1cc(CN(C(=O)c2ccc3c(c2)NC(=O)CS3)C2CC2)ccc1OC(F)F` was tested, and the “activity change, negative = inhibition” value was inactive: 17.3%. In the case of `CCN(Cc1ccncc1)C(=O)C(C)C`, the “activity change, negative = inhibition” value was inactive: -18.3%. For `Clc1cccc(CN2CCN(Cc3ccco3)CC2)c1`, the Potency was inconclusive: 2.51 µM [inhibitor, full curve, poor fit]. `CCc1ccc(C(O)(CC(C)C)C(CN2CCOCC2)c2ccccc2)cc1` (stereo unspecified) was tested, and the Potency was inconclusive: 39.8 µM [inhibitor, single point]. With `N#Cc1ccccc1Oc1ccc(OCc2ccccc2)cc1` the “activity change, negative = inhibition” value was inactive: -18.3%. `CN(C)c1ccc(Nc2nc3ccccc3n3nnnc23)cc1` was tested, and the Potency was inconclusive: 15.8 µM [inhibitor, partial curve, poor fit]. `OC(CN1CCNCC1)Cn1c2ccccc2c2ccccc21` (stereo unspecified) was tested, and the Potency was inconclusive: 39.8 µM [inhibitor, partial curve, poor fit]. In the case of `O=C(CCc1ccccc1)N1CCC(c2nc(C3CCOCC3)no2)C1` (stereo unspecified), the Potency was inconclusive: 25.1 µM [inhibitor, single point]. For `CSc1ccc(-c2nc(CSCC(=O)NCc3ccc4c(c3)OCO4)c(C)o2)cc1`, the Potency was inconclusive: 39.8 µM [inhibitor, single point]. In the case of `O=C(CCCc1c[nH]c2ccccc12)NCc1ccc(Cl)cc1`, the “activity change, negative = inhibition” value was inactive: -1.75%. `Cc1ccc2[nH]c3c(c2c1)CCCC3NCC12CC3CC(CC(C3)C1)C2` (stereo unspecified) was tested, and the Potency was inconclusive: 31.6 µM [inhibitor, partial curve, poor fit]. In the case of `OC[C@]12CCCN[C@@H]1CCN(Cc1cccc(-c3ccccn3)c1)C2`, the “activity change, negative = inhibition” value was inactive: 26.9%. In the case of `CCCCc1cc(=O)oc2cc(OC(C)C(=O)NCc3ccncc3)ccc12` (stereo unspecified), the Potency was inconclusive: 25.1 µM [inhibitor, single point]. For `CN(C)CCCNC(=O)c1cc(-c2ccccc2)nc2ccccc12`, the Potency was inconclusive: 31.6 µM [inhibitor, partial curve, poor fit]. With `O=C(Nc1ccc(O)c(-c2nc3ccccc3o2)c1)c1cccnc1` the Potency was inconclusive: 35.5 µM [inhibitor, single point]. `O=C(NCc1ccccc1)NC[C@H]1Cn2c(-c3ccc4c(c3)OCO4)cnc2CO1` was tested, and the Potency was inconclusive: 50.1 µM [inhibitor, single point]. In the case of `COC(=O)CNC(=O)C1CN(c2ccc(F)cc2)C(=O)N1` (stereo unspecified), the “activity change, negative = inhibition” value was inactive: 19.5% [at 86.2 µM]. For `COc1ccc(-c2ccc3ncc(Nc4cccc(C(F)(F)F)c4)n3n2)cn1`, the Potency was inconclusive: 56.2 µM [inhibitor, single point]. `CCCNC(=O)N1CCN(c2oc(-c3ccco3)nc2C#N)CC1` was tested, and the Potency was inconclusive: 28.2 µM [inhibitor, partial curve, poor fit]. `O=C(NC1CCCCC1)c1ccc(CSc2nc3ccncc3n2Cc2ccc(F)cc2)cc1` was tested, and the Potency was inconclusive: 31.6 µM [inhibitor, single point]. In the case of `COc1ccc(C2C=C(c3ccc(Br)cc3)Nc3nnnn32)c(OC)c1` (stereo unspecified), the Potency was inconclusive: 44.7 µM [inhibitor, single point]. In the case of `COc1ccc(Nc2cc(C(=O)NC3CCCC3)c3ccccc3n2)cc1`, the Potency was inconclusive: 50.1 µM [inhibitor, single point]. With `Cc1ccc(NC(=O)c2c(NC(=O)c3ccccc3Cl)sc3c2CCC3)cc1` the Potency was inconclusive: 17.8 µM [inhibitor, partial curve, poor fit]. `CC(C)NC(=O)N[C@H]1CCN2C(=O)c3cc(-c4ccsc4)ccc3NC(=O)[C@@H]2C1` was tested, and the Potency was inconclusive: 31.6 µM [inhibitor, single point]. For `CN1CCN(C(=O)Cn2ncc3c4ccccc4n(Cc4ccc(Cl)cc4)c3c2=O)CC1`, the Potency was inconclusive: 22.4 µM [inhibitor, single point]. `COc1ccc(OCC(=O)Nc2ccc3nn(-c4ccc(OC)cc4)nc3c2)cc1` was tested, and the Potency was inconclusive: 39.8 µM [inhibitor, single point]. With `COc1ccccc1/C=C/C=C1\Oc2c(ccc(O)c2CN(C)C)C1=O` the Potency was inconclusive: 28.2 µM [inhibitor, partial curve, poor fit]. In the case of `CC#CCN1C(=O)NC(CCc2ccccc2)(C2CCN(Cc3ccccc3-c3ccco3)CC2)C1=O` (stereo unspecified), the Potency was inconclusive: 17.8 µM [inhibitor, partial curve, poor fit]. In the case of `C#CCNC(=O)c1nc(-c2ccsc2)c2cnccn12`, the Potency was active: 31.6 µM. For `O=C(CCC1CCN(S(=O)(=O)c2ccccc2)CC1)NCc1ccccc1`, the Potency was active: 22.4 µM.
